Here are results for one molecule from patent publication US20240239894A1, “THERAPEUTIC BINDING MOLECULES” (MedImmune Limited, priority 2020, published 2024).

Data set [1] has as its system HT29-huB7-H4 clone 26 and GFP-labelled HT29 cells. In words: Bystander killing in vitro (flow cytometry cell count). The format is cell-based, human. The settings on record: 200 ng/mL, 6 days. On the procedure:
HT29-huB7-H4 clone 26 target positive and GFP-labelled HT29 target negative cells, plated either individually or mixed at a ratio of 1:1 and cultured for 1 day, were treated with 200 ng/mL E02-GL-SG3932 or NIP228-SG3932 isotype control ADC for 6 days. At the end of treatment, the number of live GFP-negative HT29-huB7-H4 clone 26 cells or GFP-positive HT29 cells was determined using flow cytometry. Results are shown in FIG. 10: A) Dot plots show representative images from flow cytometry analyses at the end of treatment for media treated samples of HT29-GFP and HT29+huB7-H4 clone 26 cells cultured alone or together. Numbers shown in the upper-left and lower-left quadrants reflect the percentage of HT29-GFP and HT29+huB7-H4 clone 26 cells, respectively.
A lentiviral expression system was used to prepare the HT29-GFP cell line, which stably expresses green fluorescent protein (GFP). Cells were plated at a total cell density of 15,000 cells per well in 24-well plates, cultured individually or mixed at a ratio of 1:1 and cultured for 1 day. Media was then removed and replaced with fresh media alone or media containing 200 ng/mL of NIP228-SG3932 or E02-GL-SG3932 ADCs, and cells were incubated for an additional 6 days. At the end of treatment, the number of live GFP-negative HT29+huB7-H4 clone 26 cells or GFP-positive HT29 cells was determined using flow cytometry and FlowJo software.
(In general: A flow cytometer gives signals particle by particle.)

The next data set is described as follows: Rat PK. Particulars: @ 60 mg/kg (HNSTD). The format is in vivo. From the text:
(§1) The cleavable mal-PEG8-val-ala linker-SG3932 linker-warhead ADC offers the widest relative TI and compares favorably to benchmark. The four comparative linker-warheads are provided below.

Another data set can be described thus: Rat toxicology study. It counts as in vivo. Particulars: after 20 or 60 mg/kg dose.
From the text: as §1

The test system of data set [2] is HT29-huB7-H4 Clone 26 xenograft. In words: Pharmacodynamic study, IHC of xenograft tumors. It counts as in vivo, CB-17 SCID mice. Here is the method: Pharmacodynamic effects following E02-GL-SG3932 treatment were evaluated in a human tumor xenograft mouse model using immunodeficient CB-17 SCID mice. Animals were inoculated subcutaneously (SC) with the human colon cancer cell line HT29-huB7-H4 Clone 26, engineered to express human B7-H4 and after tumors grew in volume to approximately 250 to 300 mm3, animals were randomized and each mouse received an IV injection of either E02-GL-SG3932 or control articles. Tumors were collected at designated timepoints, fixed in 10% neutral buffered formalin and subsequently processed and embedded into paraffin blocks. IHC and image analysis techniques were used to examine human IgG, γH2AX foci, cleaved caspase-3, and epithelial cell density in tumor samples over time. Representative IHC images of human IgG, γH2AX, and cleaved caspase-3 in tumors collected 168 hours after a single IV administration of 7 mg/kg E02-GL-SG3932 or isotype-matched control ADC NIP228 SG3932 are shown in FIGS. 43A-43F.

The subject of a further data set is MX-1 xenografts. In words: Xenograft dose-response. The settings on record: day 40. The format is in vivo, mouse. Here is the method:
To further elucidate the dose-dependent effect of E02-GL-SG3932 treatment in vivo, dose levels ranging from 0.125 mg/kg to 2 mg/kg were evaluated in MX-1 and MDA-MB-468 breast cancer xenograft models. In both studies, animals were injected SC with either the MX-1 or MDA-MB-468 cells and after tumors grew in volume to a mean of approximately 138 mm3 (MX-1) or 120 mm3 (MDA-MB-468), animals were randomized and each mouse received an IV injection of either E02-GL-SG3932 or control articles.

A further data set deals with T1, human B7-H4 antigen (Homo sapiens, UniProt Q7Z7D3).
T1 sequence (Q7Z7D3 25-282): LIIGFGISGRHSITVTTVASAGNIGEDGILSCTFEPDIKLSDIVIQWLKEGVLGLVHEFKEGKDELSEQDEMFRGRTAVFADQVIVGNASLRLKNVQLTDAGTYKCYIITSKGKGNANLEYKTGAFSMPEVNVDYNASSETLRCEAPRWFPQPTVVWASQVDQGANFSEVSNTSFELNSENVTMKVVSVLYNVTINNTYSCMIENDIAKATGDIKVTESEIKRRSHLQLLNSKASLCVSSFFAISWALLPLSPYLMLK
In words: SPR, antibody capture method. It counts as binding. On the procedure: To assess whether conjugation of the topoisomerase 1 linker-warhead affected binding properties of the E02-INT antibody, the binding affinity of E02-INT and E02-GL-SG3932 were measured using a DELFIA-ELISA method and an SPR method. […] The kinetic rate constants (kon and koff) and equilibrium dissociation constants (KD) of E02-INT and E02-GL-SG3932 for human B7-H4 antigen was also determined by SPR, using an antibody capture method.
On the technique in general: SPR reads the build-up and loss of mass on a sensor chip optically.

The subject of data set [3] is SKBR3 cell line (target cell). In words: ADCC with primary human NK cells. The format is cell-based. The settings on record: 1 μg/mL; NK cells from healthy donors. From the text: When IgG antibodies bind cell surface antigens via their Fab domains, the Fc portion of the antibodies can engage with FcγRIIIa on natural killer cells. The interaction of the Fc domain with FcγRIIIa induces cross-linking of the FcγRs, which triggers the release of cytotoxic granules containing perforin and granzymes, leading to the death of the target cell, a process called antibody-dependent cellular cytotoxicity (ADCC). The potential of antibody E02-INT and E02-GL-SG3932 to initiate ADCC activity was evaluated utilizing isolated primary human NK cells and the human breast cancer SKBR3 cell line as the target cell.
Next, human breast cancer SK-BR-3 cells were co-cultured with NK cells isolated from six healthy donors in the presence of 1 μg/mL E02-GL-SG3932, antibody intermediate E02-INT, isotype-matched control antibody NIP228, and the isotype-matched control ADC NIP228-SG3932 (FIG. 37). ADCC activity was evaluated by Incycte® Annexin V Dye binding of extracellular surface exposure of phosphatidyl serine on apoptotic cells, yielding a bright and stable red fluorescent signal. The fold-change was based on maximum cell death of non-drug treated NK/SK-BR-3 co-cultured cells. Maximum cell death was calculated by dividing the average red objects in experimental wells by the average maximum cell death in Staurosporine treated SK-BR-3 cells.

B1: E02-GL-SG3932: E02-GL conjugated via cleavable mal-PEG8-val-ala linker to TOP1i warhead, DAR of 8 (conjugate)
heavy: QVQLQQWGAGLLKPSETLSLACTVYGGSFSGYYWNWIRQPPGKGLEWIGEINHSGSTSYNPSLKSRVTISVDTSKNQFSLKLSSVTAADTAVYYCARVLYNWNVDSWGQGTLVTVSSASTKGPSVFPLAPSSKSTSGGTAALGCLVKDYFPEPVTVSWNSGALTSGVHTFPAVLQSSGLYSLSSVVTVPSSSLGTQTYICNVNHKPSNTKVDKRV[human IgG1 Fc cut from this listing]
light: DIQMTQSPSSLSASVGDRVTITCRASQDIRNDVGWYQQKPGKAPKRLIYAASRLQSGVPSRFSGSGSGTEFTLTISSLQPEDFATYYCLQHNSYPRTFGQGTKVEIKRTVAAPSVFIFPPSDEQLKSGTASVVCLLNNFYPREAKVQWKVDNALQSGNSQESVTEQDSKDSTYSLSSTLTLSKADYEKHKVYACEVTHQGLSSPVTKSFNRGEC
With B1, in data set [1], the “cell count of HT29+huB7H4 clone 26 cells plated individually” value was “decrease in cell count” and the “decrease in cell count of target negative HT29-GFP cells plated individually” value is on record as “not observed”. In addition, in data set [1] (1:1), the “cell counts of both cell types in co-culture (bystander killing)” value was “reduced”. For the same molecule, the “Rat PK CL” value in the data set “Rat PK” was found to be 7.57 mL/day/kg. The “Rat toxicology study (# of findings with severity over background/control)” value in the data set “Rat toxicology study” is 1/7. Also, in data set [2] (compared to the control), the “cleaved caspase-3” value is “Elevated” and the epithelial cell density entry is “overall decrease”. In data set [2] (single IV), the “accumulation in tumor cells (human IgG IHC)” value is “dose-dependent accumulation” and the γH2AX foci staining entry is given as “increased positive staining”. Moreover, in the data set with MX-1 xenografts (0.125 mg/kg), the “% TGI” value is recorded as −5.5%. The “% TGI” value in the data set on MX-1 xenografts (0.25 mg/kg) is recorded as 52.1%. Besides, the “% TGI” value in the data set on MX-1 xenografts (0.5 mg/kg) was 80.1%. Besides, the “% TGI” value in the data set with MX-1 xenografts (0.75 mg/kg) was 99.7%. Further, in the data set with human B7-H4 antigen, the “Ka” value was 95500 M⁻¹ s⁻¹, the “Kd” value is 0.0028 s⁻¹ and the “Rmax (RU)” value was found to be 49.7 RU. The “ADCC activity beyond untreated co-cultured cells” value in data set [3] is given as “significant increase in ADCC activity”.
